{
  "source": "PubChem BioAssay AID463173",
  "about": "(ICCB-Longwood Screening Facility, Harvard Medical School, 2010)",
  "note": "About 1,700 (3.3%) of roughly 52,000 compounds were called active. No stated cut-off is given here; in the data, active means survival mostly below about 52% (no sharp cut-off); inactive means mostly above about 56%. This is one part of the list.",
  "data": [
    {"test_system": "Wild type", "assay": "growth inhibition of S. aureus wild type versus tarO mutant, primary screen, teichoic acid synthesis inhibitors, RN4220, OD600 (AID 463173)", "conditions": "S. aureus RN4220 wild type/DeltatarO growth, OD600, 18 h, stronger effect = lower value, screened at 18.75 µg/mL (by protocol)", "values": [
      {"molecule": "CC(=O)N1CCCc2cc(S(=O)(=O)N3CCCC(C(=O)Nc4cccc(Cl)c4C)C3)ccc21", "note": "(stereo unspecified)", "survival": "inactive: 76%"},
      {"molecule": "CCOC(=O)c1cnc2ccc(OCC)cc2c1Nc1cc(Cl)c(OC)cc1OC", "survival": "inactive: 60%"},
      {"molecule": "CC(C)Cn1cc(C(=O)N2CCN(c3cccc(Cl)c3)CC2)c2c3ccccc3n(C)c2c1=O", "survival": "inactive: 79%"},
      {"molecule": "Cc1ccccc1N(CC(=O)NC1CCCC1)C(=O)c1csnn1", "survival": "inactive: 107%"},
      {"molecule": "Cc1ccc(C)c(OC(=O)CSc2nnc(-c3ccc4c(c3)OCO4)o2)c1", "survival": "inactive: 85%"},
      {"molecule": "CCOc1cc(C(=O)Nc2ccc(S(=O)(=O)Nc3cc(OC)nc(OC)n3)cc2)cc(OCC)c1OCC", "survival": "inactive: 89%"},
      {"molecule": "COC(=O)c1ccc(Cn2c(SCC(=O)N(C)c3ccccc3)nc3ccccc32)cc1", "survival": "inactive: 75%"},
      {"molecule": "CCCCc1ccc(NC(=O)c2ccc3c(c2)CCN3S(=O)(=O)c2ccccc2)cc1", "survival": "inactive: 88%"},
      {"molecule": "O=C(CCCn1c(=O)c2ccccc2n(Cc2cccc(F)c2)c1=O)NCc1ccccc1Cl", "survival": "inactive: 86%"},
      {"molecule": "O=C(Nc1ccc(S(=O)(=O)N(Cc2ccccc2)c2ccccc2)cc1)c1ccc(F)cc1", "survival": "inactive: 79%"},
      {"molecule": "CCCCNC(=O)c1sc2ncccc2c1-n1cccc1", "survival": "inactive: 47%"},
      {"molecule": "Nc1c(S(=O)(=O)Cc2ccccc2)sc2nc3c(cc12)CCCC3", "survival": "inactive: 122%"},
      {"molecule": "O=C(CCc1ccccc1)N1CCc2c([nH]c3ccccc23)C1c1ccc(F)cc1", "note": "(stereo unspecified)", "survival": "inactive: 85%"},
      {"molecule": "O=C(NCCCc1nc2ccccc2n1Cc1ccccc1F)c1ccco1", "survival": "inactive: 92%"},
      {"molecule": "CCOC(=O)Cn1c(=O)n(-c2ccc(Cl)cc2)c2nc(-c3ccc(Cl)cc3)nc(C(N)=O)c21", "survival": "inactive: 83%"},
      {"molecule": "Cc1cc2oc(C(=O)Nc3c(C)n(C)n(-c4ccccc4)c3=O)cc(=O)c2cc1C", "survival": "inactive: 83%"},
      {"molecule": "COc1ccc(-c2cc(C(=O)Nc3c(C)n(C)n(-c4ccccc4)c3=O)no2)cc1", "survival": "inactive: 73%"},
      {"molecule": "CN1C(=O)c2ccccc2Sc2ccc(NC(=O)c3ccc(C#N)cc3)cc21", "survival": "inactive: 92%"},
      {"molecule": "COC(=O)C(CCSC)NC(=O)c1cc2c(n(-c3ccccc3)c1=O)CC(C)(C)CC2=O", "note": "(stereo unspecified)", "survival": "inactive: 69%"},
      {"molecule": "O=c1[nH]c2ccc(S(=O)(=O)Nc3ccccc3)cc2o1", "survival": "inactive: 117%"},
      {"molecule": "Cc1cccc(NS(=O)(=O)c2ccc3c(c2)CCCN3C(=O)C2CCC2)c1C", "survival": "inactive: 153%"},
      {"molecule": "Cc1nn(C(C)(C)C)c(OC(=O)c2c(F)cccc2F)c1Sc1ccccc1", "survival": "inactive: 117%"},
      {"molecule": "COc1cc(CNc2ccc3[nH]c(=O)[nH]c3c2)cc(Cl)c1OCc1ccc(F)cc1", "survival": "inactive: 87%"},
      {"molecule": "COc1ccc(NC(=O)CN(c2ccc(C)cc2)S(=O)(=O)c2cccs2)cc1", "survival": "inactive: 84%"},
      {"molecule": "Cc1ccc2c(=O)cc(C(=O)Nc3nc4ccc(Cl)cc4s3)oc2c1", "survival": "inactive: 65%"},
      {"molecule": "O=C(Nc1ccc(C(=O)OCc2cc(=O)n3c4c(sc3n2)CCCC4)cc1)c1cccc(F)c1", "survival": "inactive: 81%"},
      {"molecule": "Cc1cccc(C(=O)Nc2ccccc2OCc2cc(=O)n3c(C)csc3n2)c1", "survival": "inactive: 90%"},
      {"molecule": "O=C(Cn1cc(S(=O)(=O)Cc2ccccc2F)c2ccccc21)NCc1ccccc1", "survival": "inactive: 72%"},
      {"molecule": "Cc1csc2nc(-c3cccc(NC(=O)c4c(F)cccc4F)c3)cn12", "survival": "inactive: 121%"},
      {"molecule": "COc1ccc(CCNc2nc3c(c(=O)n(C)c(=O)n3C)n2Cc2ccccc2Cl)cc1OC", "survival": "inactive: 91%"},
      {"molecule": "O=C(NCCc1ccccc1)c1cc(-c2ccc(Cl)c(Cl)c2)on1", "survival": "inactive: 86%"},
      {"molecule": "CCOc1ccc(Nc2c3c(nc4nncn24)CCC3)cc1", "survival": "inactive: 86%"},
      {"molecule": "COc1ccc(C(=O)OCc2cc(=O)n3nc(C4CC4)sc3n2)cc1OC", "survival": "inactive: 119%"},
      {"molecule": "O=C(O)C1C2C=CC3(CN(Cc4cccc(Cl)c4Cl)C(=O)C13)O2", "note": "(stereo unspecified)", "survival": "inactive: 101%"},
      {"molecule": "COc1cc(OC)cc(N2C(=O)CSC23C(=O)Nc2ccccc23)c1", "note": "(stereo unspecified)", "survival": "inactive: 73%"},
      {"molecule": "Cc1c(CC(=O)NCc2ccccc2Cl)c(=O)oc2cc(O)ccc12", "survival": "inactive: 72%"},
      {"molecule": "Cc1cccc(-c2c3c(nc4ncnn24)-c2ccccc2C3=O)c1", "survival": "inactive: 112%"},
      {"molecule": "CCOc1ccc(-c2nnc(SCC(=O)Nc3cccc(Cl)c3C)o2)cc1", "survival": "inactive: 48%"},
      {"molecule": "CCCNC(=O)CSc1cn(CC(=O)N2CCCCCC2)c2ccccc12", "survival": "inactive: 90%"},
      {"molecule": "Cc1ccc2nc(CN3CCN(S(=O)(=O)c4ccc(F)cc4)CC3)oc2c1", "survival": "inactive: 59%"},
      {"molecule": "Cc1ccc2oc(C(=O)Nc3ccc(S(=O)(=O)Nc4nc(C)cc(C)n4)cc3)cc(=O)c2c1", "survival": "inactive: 106%"},
      {"molecule": "CC(C)Oc1ccc(CNS(=O)(=O)c2ccc(-c3cc(C(F)(F)F)on3)s2)cc1", "survival": "inactive: 98%"},
      {"molecule": "Cc1ccc(NC(=O)CCn2cnc3onc(-c4ccc(F)cc4)c3c2=O)c(Br)c1", "survival": "inactive: 73%"},
      {"molecule": "CCC1CCCCN1C(=O)CSc1nnc(-c2cccnc2)n1-c1ccc(OC)cc1", "note": "(stereo unspecified)", "survival": "inactive: 112%"},
      {"molecule": "CN(C)c1ccc(/C=N/c2nc3ccccc3o2)cc1", "survival": "inactive: 113%"},
      {"molecule": "COc1ccc(CCNC(=O)CCn2c(=O)c3ccccc3n(Cc3ccccc3C)c2=O)cc1OC", "survival": "inactive: 80%"},
      {"molecule": "CN(C)S(=O)(=O)c1ccc(S(=O)(=O)N(Cc2ccccc2F)C2CC2)cc1", "survival": "inactive: 106%"},
      {"molecule": "Cc1c(-c2nc(-c3ccc4c(c3)OCO4)no2)nnn1-c1cccc(C(F)(F)F)c1", "survival": "inactive: 72%"},
      {"molecule": "Cc1ccc(Cl)cc1N1CCN(C(=O)COCc2cc(-c3ccc4c(c3)OCO4)on2)CC1", "survival": "inactive: 69%"},
      {"molecule": "Cc1cc2c(cc1S(=O)(=O)Nc1cccc(Cl)c1C)OCCN2C", "survival": "inactive: 51%"},
      {"molecule": "COc1ccc(-c2nc3ccccc3o2)cc1NC(=O)c1ccc(-c2cccc(Cl)c2C)o1", "survival": "inactive: 70%"},
      {"molecule": "COc1cccc(NC(=O)C2CCN(c3nnc(-n4c(C)ccc4C)s3)CC2)c1", "survival": "inactive: 77%"},
      {"molecule": "Cc1ccc(CNC(=O)C2CCCN(Cc3nc(-c4cccc(C)c4)oc3C)C2)cc1", "note": "(stereo unspecified)", "survival": "active: 4%"},
      {"molecule": "Cc1ccc(-c2nc3c(c(SCC(=O)Nc4cccc(C(=O)O)c4)n2)Cc2cccc(C)c2O3)cc1", "survival": "inactive: 67%"},
      {"molecule": "CC1=C(C(=O)Nc2cccc(C(F)(F)F)c2)C2(CCN(C(C)C)CC2)OC1=O", "survival": "inactive: 91%"},
      {"molecule": "CCN(CC)CCNC(=O)c1ccc2c(=O)n3nc(Nc4ccccc4)sc3nc2c1", "survival": "inactive: 73%"}
    ]}
  ]
}
